PMC10668032
The other results are listed elsewhere or left out. At the low end of the ranking the order means little.

biological target: SIX1-Q177R homeodomain (UniProt Q15475); experiment: universal protein binding microarray; settings: Universal all-10-mer PBM (8x60K, AMADID 030236), 300 nM GST-tagged protein, Alexa Fluor 488 anti-GST; buffer, salt, pH and temperature not stated; high values mean tight binding; most listed sequences are background and not binding sites; double strand, one strand shown

Sequence	binding signal [E-score]
AAAAACCG	-0.0883
AGAGAAAG	-0.15
ATACCTAA	0.0493
ACCCTAAT	0.099
GTTCACAA	-0.00229
CCGAGTGC	0.14
GACGAAGA	-0.236
CCATGGCG	0.0146
GATAGTCC	0.0164
ATTTTAAC	-0.155
GGTCAAAC	-0.0349
ACTATTGA	0.0882
CGAGTTGA	-0.0495
CTATTGTC	-0.125
AGCGCTAC	-0.0635
ACCGATCT	-0.0586
ACCGATAG	0.0859
GATATCCC	0.193
AGCTCCGC	-0.0589
AAACGTCT	-0.0938
AAGGCTTC	-0.214
GCGAGCAC	0.135
ACAGCGGG	-0.154
GGTAACTA	0.112

Sequence	binding signal [E-score]
CAAGGATG	-0.162
CCGTACTC	0.126
CTTATCAA	-0.173
ATTTCGAC	-0.0898
ACTCTCAT	-0.0746
ATAACGAC	0.0874
CGTCCGTC	-0.0952
CTGAGGTA	0.185
AAGAAGCC	-0.169
ATTTCTGG	0.00773
AGCCCTGG	-0.112
AATGCTAC	-0.0358
CTATGGGC	-0.171
ACCCAACC	0.128
AGGATTTG	0.0393
CTTCCCGC	-0.0561
AACTGCAA	-0.0818
CCAGCGTA	0.0867
TCGCAGCA	-0.139
CAGCGGGC	-0.299
CACGGCGA	0.259
ATAGAGGA	0.149
ATCTGCGA	0.0327
CCTTCCTA	0.0445

Sequence	binding signal [E-score]
GTTACAAC	-0.0466
CAAGACTC	-0.0127
AACGGCAG	-0.0456
CTTACCAA	-0.0789
ACCCGGAG	0.298
TCTAGACA	0.155
CGAGGGGA	0.121
CCCATGAG	0.0726
AACTTTAA	-0.237
AGTAGTCA	0.13
AAAGGTCT	-0.228
GCTGGCAC	0.0975
CAGTCGGG	0.196
AAGTTCAC	-0.158
ACGGCGAG	0.058
CACTGCAC	0.223
ACATAAAA	-0.0789
ACGAATCA	-0.0578
ATGCTGCA	0.0502
ACTCATGA	-0.102
CAAGGTAA	-0.0915
CTCTCCGA	-0.178
AGCCCGGC	-0.0685
GCGCTCCC	-0.175

Sequence	binding signal [E-score]
CTTCCGTC	-0.157
CCCAAATA	-0.0946
CACAGCTG	-0.075
ACGGCTCT	-0.0868
ATGGTCAA	-0.196
GGCGTAGA	-0.0209
GGTGCGAA	0.131
ACGAGTTC	-0.0617
GCGAAGAC	0.0267
CGTGGGGC	0.00507
CCGCGGAA	-0.0881
GACCTATA	-0.0673
GCAAAGAC	-0.326
ATCAGCCG	-0.147
CATTGGCG	0.0382
GTAAGTGA	0.011
GTTCCCAA	-0.142
GCTAGGCA	-0.284
CAAGGGAA	-0.0453
GTTCTATA	-0.0522
AATACCGT	0.0468
ACCCTCAC	0.127
